# Laboratory results: the supplement of paper PMC12217912
# The other results are listed elsewhere or left out. The full chains were built here from the parent and the listed change. Inactive controls read about 0.05.
# B1: TEV protease; numbered along this chain (parent)
# chain: MGESLFKGPRDYNPISSSICHLTNESDGHTTSLYGIGFGPFIITNKHLFRRNNGTLVVQSLHGVFKVKDTTTLQQHLVDGRDMIIIRMPKDFPPFPQKLKFREPQREERICLVTTNFQTKSMSSMVSDTSCTFPSGDGIFWKHWIQTKDGQCGSPLVSTRDGFIVGIHSASNFTNTNNYFTSVPKNFMELLTNQEAQQWVSGWRLNADSVLWGGHKVFMVKPEEPFQPVKEATQL
# Variants of: B1
# Assay: raw area under fraction-flipped curve 0-4 h after induction (AUC4h, not background-subtracted), DNA-recorder readout of cleavage of the substrate (dimensionless); higher = more cleavage of the substrate by the protease variant
# Conditions: temperature: 34 °C; time window: 0-4 h after rhamnose induction
# Experimental: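 In vivo DNA recorder in E. coli TOP10(DE3) ΔrhaA at 34 °C. Each TEVp single-site mutant (parent TEVp 0) is paired with a single-site variant of the 7-mer TEVs (canonical ENLYFQ|S). The substrate sits between flexible linkers in a Bxb1-sfGFP-TEVs-SsrA fusion, so cleavage stabilises Bxb1 and speeds flipping of a recombination array, read by NGS. The value is the raw area under the fraction-flipped curve over 0-4 h after rhamnose induction (AUC4h), with ≥20 reads per time point. It is not background-subtracted; inactive controls average about 0.047.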
# 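Further: Bxb1 expression induced with 0.2% (w/v) L-rhamnose at OD600 near 0.5, cultures sampled hourly, flipped fraction per protease–substrate barcode pair counted by paired-end Illumina sequencing.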
Variant,area with substrate ENLCFQS,area with substrate ENLDFQS,area with substrate ENLEFQS,area with substrate ENLHFQS,area with substrate ENLKFQS,area with substrate ENLLFQS,area with substrate ENLNFQS,area with substrate ENLQFQS,area with substrate ENLSFQS,area with substrate ENLFFQS,area with substrate ENLMFQS,area with substrate ENLRFQS,area with substrate ENLPFQS,area with substrate ENLIFQS,area with substrate ENLVFQS,area with substrate ENLWFQS,area with substrate ENLGFQS
MGESLFKGPRDYNPISSSICHLTNESDGHTTSLYGIGFGPFIITNKHLFRRNNGTLVVQSLHGVFKVKDTTTLQQHLVDGRDMIIIRMPKDFPPFPQKLKFREPQREERICLVTTNFQTKSMSSMVSDTSCTFPSGDGIFWKHWIQTKDGQCGSPLVSTRDGFIVGIHSASNFTNTNNYFTSVPKNFMESLTNQEAQQWVSGWRLNADSVLWGGHKVFMVKPEEPFQPVKEATQL [L190S],0.0912,0.0702,0.0552,0.0336,0.0797,0.0718,0.0613,0.0662,0.0474,,,,,,,,
MGESLFKGPRDYNPISSSICHLTNESDGHTTSLYGIGFGPFIITNKHLFRRNNGTLVVQSLHGVFKVKDTTTLQQHLVDGRDMIIIRMPKDFPPFPQKLKFREPQREERICLVTTNFQTKSMSSMVSDTSCTFPSGDGIFWKHWIQTKDGQCGSPLVSTRDGFIVGIHSASNFTNTNNYFTSVPKNFMELLTNKEAQQWVSGWRLNADSVLWGGHKVFMVKPEEPFQPVKEATQL [Q194K],0.0731,0.0636,0.0688,,0.0828,,0.0574,0.0653,0.0568,0.0809,0.075,0.0715,,,,,
MGESLFKGPRDYNPISSSICHLTNESDGHTTSLYGIGFGPFIITNKHLFRRNNGTLVVQSLHGVFKVKDTTTLQQHLVDGRDMIIIRMPKDFPPFPQKLKFREPQREERICLVTTNFQTKSMSSMVSDTSCTFPSGDGIFWKHWIQTKDGQCGSPLVSTRDGFIVGIHSASNFTNTNNYFTSVPKNFMELLTNQEAEQWVSGWRLNADSVLWGGHKVFMVKPEEPFQPVKEATQL [Q197E],0.061,0.063,0.0555,0.0699,0.0694,0.0572,0.0622,0.0696,0.0657,0.0696,,,0.0647,,,,
MGESLFKGPRDYNPISSSICHLTNESDGHTTSLYGIGFGPFIITNKHLFRRNNGTLVVQSLHGVFKVKDTTTLQQHLVDGRDMIIIRMPKDFPPFPQKLKFREPQREERICLVTTNFQTKSMSSMVSDTSCTFPSGDGIFWKHWIQTKDGQCGSPLVSTRDGFIVGIHSASNFTNTNNYFTSVPKNFMELLTNQEAQQWVSGLRLNADSVLWGGHKVFMVKPEEPFQPVKEATQL [W203L],0.0724,,,,,0.0557,0.0581,,0.0728,0.0802,,0.0675,,,,,
MGESLFKGPRDYNPISSSICHLTNESDGHTTSLYGIGFGPFIITNKHLFRRNNGTLVVQSLHGVFKVKDTTTLQQHLVDGRDMIIIRMPKDFPPFPQKLKFREPQREERICLVTTNFQTKSMSSMVSDTSCTFPSGDGIFWKHWIQTKDGQCGSPLVSTRDGFIVGIHSASNFTNTNNYFTSVPKNFMELLTNQEAQQWVSGWRLEADSVLWGGHKVFMVKPEEPFQPVKEATQL [N206E],0.0735,0.069,0.0618,0.0839,0.0876,,0.0592,0.0784,0.0533,0.0956,,0.0649,,0.083,0.0772,0.0772,
MGESLFKGPRDYNPISSSICHLTNESDGHTTSLYGIGFGPFIITNKHLFRRNNGTLVVQSLHGVFKVKDTTTLQQHLVDGRDMIIIRMPKDFPPFPQKLKFREPQREERICLVTTNFQTKSMSSMVSDTSCTFPSGDGIFWKHWIQTKDGQCGSPLVSTRDGFIVGIHSASNFTNTNNYFTSVPKNFMELLTNQEAQQWVSGWRLIADSVLWGGHKVFMVKPEEPFQPVKEATQL [N206I],0.119,0.0717,0.0753,0.0576,0.0787,0.0509,0.053,0.0712,0.0632,0.0978,0.0656,,0.0561,0.0521,,0.0564,
MGESLFKGPRDYNPISSSICHLTNESDGHTTSLYGIGFGPFIITNKHLFRRNNGTLVVQSLHGVFKVKDTTTLQQHLVDGRDMIIIRMPKDFPPFPQKLKFREPQREERICLVTTNFQTKSMSSMVSDTSCTFPSGDGIFWKHWIQTKDGQCGSPLVSTRDGFIVGIHSASNFTNTNNYFTSVPKNFMELLTNQEAQQWVSGWRLNAGSVLWGGHKVFMVKPEEPFQPVKEATQL [D208G],0.028,0.0631,,0.071,0.0869,0.0328,0.0614,,0.0745,,,,0.0818,,0.0829,,
MGESLFKGPRDYNPISSSICHLTNESDGHTTSLYGIGFGPFIITNKHLFRRNNGTLVVQSLHGVFKVKDTTTLQQHLVDGRDMIIIRMPKDFPPFPQKLKFREPQREERICLVTTNFQTKSMSSMVSDTSCTFPSGDGIFWKHWIQTKDGQCGSPLVSTRDGFIVGIHSASNFTNTNNYFTSVPKNFMELLTNQEAQQWVSGWRLNADSVKWGGHKVFMVKPEEPFQPVKEATQL [L211K],0.0408,0.0619,,0.0791,0.0639,0.0719,0.0737,,0.0502,0.0939,,,0.0651,0.0771,,0.0636,
MGESLFKGPRDYNPISSSICHLTNESDGHTTSLYGIGFGPFIITNKHLFRRNNGTLVVQSLHGVFKVKDTTTLQQHLVDGRDMIIIRMPKDFPPFPQKLKFREPQREERICLVTTNFQTKSMSSMVSDTSCTFPSGDGIFWKHWIQTKDGQCGSPLVSTRDGFIVGIHSASNFTNTNNYFTSVPKNFMELLTNQEAQQWVSGWRLNADSVSWGGHKVFMVKPEEPFQPVKEATQL [L211S],0.0551,0.0694,,,,,,,,0.125,,,0.0606,,,,
MGESLFKGPRDYNPISSSICHLTNESDGHTTSLYGIGFGPFIITNKHLFRRNNGTLVVQSLHGVFKVKDTTTLQQHLVDGRDMIIIRMPKDFPPFPQKLKFREPQREERICLVTTNFQTKSMSSMVSDTSCTFPSGDGIFWKHWIQTKDGQCGSPLVSTRDGFIVGIHSASNFTNTNNYFTSVPKNFMELLTNQEAQQWVSGWRLNADSVLWGGNKVFMVKPEEPFQPVKEATQL [H215N],0.0486,0.0668,,,0.058,,0.0511,0.0604,0.0946,0.0632,,,0.0624,,,,0.0739
MGESLFKGPRDYNPISSSICHLTNESDGHTTSLYGIGFGPFIITNKHLFRRNNGTLVVQSLHGVFKVKDTTTLQQHLVDGRDMIIIRMPKDFPPFPQKLKFREPQREERICLVTTNFQTKSMSSMVSDTSCTFPSGDGIFWKHWIQTKDGQCGSPLVSTRDGFIVGIHSASNFTNTNNYFTSVPKNFMELLTNQEAQQWVSGWRLNADSVLWGGHKVYMVKPEEPFQPVKEATQL [F218Y],0.0615,,,0.0713,0.0779,,,0.0526,0.0577,0.0852,0.0459,,0.0218,,,0.0661,0.0626
